Source: paper PMC4081100
This is a selection; strong and weak results do not stand in their true shares. For some assays here: At the low end of the ranking, values are background and their order means little. This is one part of the list. For some assays here: The source does not settle which construct or isoform was used.

Columns and labels:
Experiment in all cases: universal protein binding microarray (PBM)
Details in all cases: transcription factors of Arabidopsis thaliana; high values mean tight binding; most listed sequences are background and not binding sites; double strand, one strand shown
GST-NTL6(1-168) = GST-NTL6(1-168) (UniProt Q9SCK6)
GST-ANAC055(1-171) = molecular target: T1, GST-ANAC055(1-171) (UniProt Q9LDY8)
T1 sequence: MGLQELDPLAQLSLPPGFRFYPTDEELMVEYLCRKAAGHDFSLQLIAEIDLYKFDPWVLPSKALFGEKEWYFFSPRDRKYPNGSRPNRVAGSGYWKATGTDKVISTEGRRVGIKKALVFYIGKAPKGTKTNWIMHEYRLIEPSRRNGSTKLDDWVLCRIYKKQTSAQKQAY

GST-NAP(1-166) = molecular target: T2, GST-NAP(1-166) (UniProt O49255)
T2 sequence: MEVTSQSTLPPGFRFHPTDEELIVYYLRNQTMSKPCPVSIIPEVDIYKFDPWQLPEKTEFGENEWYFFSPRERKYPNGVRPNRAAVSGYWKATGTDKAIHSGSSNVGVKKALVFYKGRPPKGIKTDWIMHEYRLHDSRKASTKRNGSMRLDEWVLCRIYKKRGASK

GST-NTL8 NAC domain = molecular target: T3, GST-NTL8 NAC domain (UniProt Q9XIN7)
T3 sequence: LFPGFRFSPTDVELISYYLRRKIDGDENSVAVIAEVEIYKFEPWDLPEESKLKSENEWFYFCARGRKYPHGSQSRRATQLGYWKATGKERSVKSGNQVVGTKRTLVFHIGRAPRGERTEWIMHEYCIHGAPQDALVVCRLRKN

GST-SND1(1-203) = molecular target: T4, GST-SND1(1-203) (UniProt Q9LPI7)
T4 sequence: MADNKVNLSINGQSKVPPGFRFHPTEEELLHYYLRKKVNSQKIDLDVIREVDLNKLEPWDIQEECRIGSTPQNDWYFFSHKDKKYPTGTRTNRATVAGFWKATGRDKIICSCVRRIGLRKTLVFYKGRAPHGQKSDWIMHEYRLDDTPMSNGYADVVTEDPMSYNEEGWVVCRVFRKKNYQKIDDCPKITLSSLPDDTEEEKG

[1] = molecular target: T5, GST-VOZ2 (Arabidopsis thaliana) (UniProt Q9SLB9)
T5 sequence: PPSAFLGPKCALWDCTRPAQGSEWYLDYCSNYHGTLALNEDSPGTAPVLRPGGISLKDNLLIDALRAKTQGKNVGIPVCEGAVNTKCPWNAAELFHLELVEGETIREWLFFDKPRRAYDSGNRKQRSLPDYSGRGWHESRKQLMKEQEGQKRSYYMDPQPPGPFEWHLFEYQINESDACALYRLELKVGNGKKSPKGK

GST-WRKY1(266-371) = GST-WRKY1(266-371) (UniProt Q9SI37)
GST-ANAC019 NAC domain = molecular target: T6, GST-ANAC019 NAC domain (UniProt Q9C932)
T6 sequence: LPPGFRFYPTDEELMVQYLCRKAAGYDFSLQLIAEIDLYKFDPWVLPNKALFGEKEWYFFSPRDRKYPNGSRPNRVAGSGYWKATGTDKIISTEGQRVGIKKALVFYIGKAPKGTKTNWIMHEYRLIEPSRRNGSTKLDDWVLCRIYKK

GST-ANAC092(1-176) = molecular target: T7, GST-ANAC092(1-176) (UniProt Q9FKA0)
T7 sequence: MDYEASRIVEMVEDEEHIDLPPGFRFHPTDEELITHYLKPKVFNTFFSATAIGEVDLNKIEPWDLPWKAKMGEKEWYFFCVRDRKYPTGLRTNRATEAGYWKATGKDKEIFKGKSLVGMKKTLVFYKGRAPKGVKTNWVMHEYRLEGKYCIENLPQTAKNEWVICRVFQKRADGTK

GST-NST2(1-184) = molecular target: T8, GST-NST2(1-184) (UniProt Q9M274)
T8 sequence: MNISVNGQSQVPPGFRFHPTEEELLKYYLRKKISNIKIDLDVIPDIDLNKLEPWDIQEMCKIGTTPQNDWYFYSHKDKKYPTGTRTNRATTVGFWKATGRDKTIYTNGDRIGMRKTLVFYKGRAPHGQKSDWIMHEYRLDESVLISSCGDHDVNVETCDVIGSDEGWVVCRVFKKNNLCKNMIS

[2] = molecular target: T9, GST-ANAC092(1-285) full length (UniProt Q9FKA0)
T9 sequence: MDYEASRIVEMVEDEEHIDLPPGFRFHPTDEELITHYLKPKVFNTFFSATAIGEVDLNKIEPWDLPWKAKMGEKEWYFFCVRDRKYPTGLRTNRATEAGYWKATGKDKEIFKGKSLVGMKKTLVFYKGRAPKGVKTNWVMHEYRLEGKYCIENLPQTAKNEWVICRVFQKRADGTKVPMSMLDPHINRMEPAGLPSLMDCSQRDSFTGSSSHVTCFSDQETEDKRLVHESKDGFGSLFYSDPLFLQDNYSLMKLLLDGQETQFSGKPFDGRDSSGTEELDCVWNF

GST-ATAF1 NAC domain = molecular target: T10, GST-ATAF1 NAC domain (UniProt Q39013)
T10 sequence: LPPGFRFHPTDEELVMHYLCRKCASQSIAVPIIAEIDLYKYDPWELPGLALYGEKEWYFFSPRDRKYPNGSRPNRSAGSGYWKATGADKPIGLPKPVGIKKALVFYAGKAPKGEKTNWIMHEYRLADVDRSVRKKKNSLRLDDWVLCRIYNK

GST-VND3 NAC domain = molecular target: T11, GST-VND3 NAC domain (UniProt Q9FH59)
T11 sequence: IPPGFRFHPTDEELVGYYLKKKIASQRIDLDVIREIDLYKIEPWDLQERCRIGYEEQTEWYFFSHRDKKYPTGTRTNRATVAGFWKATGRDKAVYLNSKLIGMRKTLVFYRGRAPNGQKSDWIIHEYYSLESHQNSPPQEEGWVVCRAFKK

GST-VND7 NAC domain = molecular target: T12, GST-VND7 NAC domain (UniProt Q9C8W9)
T12 sequence: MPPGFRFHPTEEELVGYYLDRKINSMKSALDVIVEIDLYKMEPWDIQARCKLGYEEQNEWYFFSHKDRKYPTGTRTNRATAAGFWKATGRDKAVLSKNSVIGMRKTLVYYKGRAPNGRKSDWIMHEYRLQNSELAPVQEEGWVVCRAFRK

Row | Sequence | binding signal (GST-NTL6(1-168)) [E-score] | binding signal (GST-ANAC055(1-171)) [E-score] | binding signal (GST-NAP(1-166)) [E-score] | binding signal (GST-NTL8 NAC domain) [E-score] | binding signal (GST-SND1(1-203)) [E-score] | binding signal [1] [E-score] | binding signal (GST-WRKY1(266-371)) [E-score] | binding signal (GST-ANAC019 NAC domain) [E-score] | binding signal (GST-ANAC092(1-176)) [E-score] | binding signal (GST-NST2(1-184)) [E-score] | binding signal [2] [E-score] | binding signal (GST-ATAF1 NAC domain) [E-score] | binding signal (GST-VND3 NAC domain) [E-score] | binding signal (GST-VND7 NAC domain) [E-score]
1 | ACGCAAGC | -0.0626 | 0.295 | 0.294 | 0.0216 | 0.417 | -0.037 | -0.0227 |  |  |  |  |  |  | 
2 | GTTTCTTA |  |  | -0.0134 |  | 0.33 | 0.153 | -0.0659 | 0.141 |  |  |  |  |  | 
3 | GAAGGAAC | 0.445 | 0.172 | 0.148 |  | 0.337 | 0.00274 | -0.0458 |  | 0.189 | 0.249 |  |  |  | 
4 | GTACGGCA | -0.0392 |  | 0.342 | 0.0134 | 0.236 | -0.0553 | 0.0953 |  | 0.395 |  |  |  |  | 
5 | GCACGGTA | -0.0375 |  |  | -0.0442 | 0.0103 | -0.0537 | -0.048 | 0.2 |  | -0.0201 | 0.408 |  |  | 
6 | ATACGCTA | 0.0936 |  | 0.155 | -0.104 | 0.458 | 0.209 | -0.0695 | 0.000615 |  |  | 0.466 |  |  | 
7 | CGCACGCA | -0.0637 |  | 0.291 | -0.0173 | 0.229 | -0.0926 | -0.0337 |  |  |  |  | 0.0589 |  | 
8 | GTGGAGTA |  | 0.0843 |  | 0.0472 | 0.402 | 0.088 | -0.0342 | -0.0416 |  |  |  |  |  | 
9 | AGGGTAAG | 0.245 | -0.0223 |  |  | 0.111 | 0.119 | 0.0221 |  |  |  | 0.0319 | -0.0198 |  | 
10 | ATTGCTTC |  | 0.0988 | 0.0172 | 0.278 | 0.411 | -0.0112 | -0.0776 | 0.108 |  |  |  | -0.0282 |  | 
11 | CTAAGTTA | 0.393 |  | -0.0635 | -0.00579 | 0.413 | 0.0334 | -0.122 | 0.0346 |  | 0.282 | 0.279 |  |  | 
12 | ACAGTCAA | 0.0103 |  |  | 0.164 | 0.0376 | 0.0235 | 0.477 | 0.028 |  | 0.00331 | 0.0848 | 0.081 |  | 
13 | TAAGTTAA | 0.418 |  | -0.025 | 0.0196 | 0.297 | 0.00779 | -0.177 |  |  |  |  | 0.157 |  | 
14 | ACACGGCT | -0.161 |  |  | -0.0406 | 0.0366 | -0.159 | -0.0991 |  | 0.181 | 0.0146 |  | 0.264 |  | 
15 | CACGTAAA |  | 0.414 | 0.35 | -0.0171 | 0.289 | 0.118 | -0.00432 |  |  | 0.293 |  |  |  | 
16 | GCAAGTAA |  |  |  |  | 0.352 | -0.0357 | -0.0549 | 0.211 |  | 0.223 |  |  |  | 

Row | Sequence | binding signal (GST-NTL6(1-168)) [E-score] | binding signal (GST-ANAC055(1-171)) [E-score] | binding signal (GST-NAP(1-166)) [E-score] | binding signal (GST-NTL8 NAC domain) [E-score] | binding signal (GST-SND1(1-203)) [E-score] | binding signal [1] [E-score] | binding signal (GST-WRKY1(266-371)) [E-score] | binding signal (GST-ANAC019 NAC domain) [E-score] | binding signal (GST-ANAC092(1-176)) [E-score] | binding signal (GST-NST2(1-184)) [E-score] | binding signal [2] [E-score] | binding signal (GST-ATAF1 NAC domain) [E-score] | binding signal (GST-VND3 NAC domain) [E-score] | binding signal (GST-VND7 NAC domain) [E-score]
17 | ATTACTTA | 0.49 | 0.191 |  | 0.31 | 0.38 | 0.183 | -0.0217 | 0.0392 |  | 0.296 |  |  |  | 
18 | AACTTGAC | 0.0283 |  | 0.043 | 0.0439 | 0.136 | -0.0872 | 0.425 | 0.00633 |  | 0.173 | 0.088 |  |  | 
19 | CACGGAAG | 0.0727 | 0.435 |  |  | 0.164 | 0.00631 | 0.0393 | 0.471 |  | 0.12 |  |  |  | 
20 | ACGCTACA | 0.051 |  |  | 0.00254 | 0.402 | 0.137 | -0.0858 | -0.0101 |  | 0.249 |  |  |  | 
21 | ACGTTACG | 0.0351 | 0.299 | 0.341 | 0.13 | 0.44 | 0.123 | 0.0365 |  |  |  |  |  |  | 
22 | AGAAGGAA | 0.417 |  | -0.0992 |  | 0.157 | 0.00768 | -0.00911 | 0.0646 | 0.192 | 0.177 |  | 0.149 |  | 
23 | ACGGCACG | -0.073 |  |  | -0.157 | 0.0651 | -0.086 | -0.126 |  |  |  |  |  |  | 
24 | GCACGCAA | -0.133 | 0.396 |  | 0.0319 | 0.456 | -0.0583 | -0.152 | 0.458 |  | 0.405 |  |  |  | 
25 | AGAAGCAA | 0.361 | 0.119 | 0.0488 | 0.218 | 0.382 | 0.0768 | 0.0108 |  |  | 0.284 |  | 0.0783 |  | 
26 | ATTACGCA | -0.0222 |  |  | -0.0281 |  | 0.169 | -0.084 | 0.168 |  |  |  |  | 0.265 | 0.253
27 | GCTTTCCC |  | -0.0233 | -0.0554 | 0.423 |  | 0.0575 | -0.186 |  | 0.124 | -0.0421 |  | -0.131 | -0.0491 | 0.0285
28 | ACCGTTGA | -0.0239 | -0.00817 |  | 0.013 |  | 0.0945 | 0.404 | 0.0224 |  | 0.0165 |  | 0.038 | -0.049 | 0.013
29 | GTAAGAAA | 0.422 | 0.206 |  |  |  | 0.208 | -0.0658 | 0.224 |  |  |  | 0.311 | 0.16 | 0.19
30 | ATCGCGTA | -0.00688 | -0.000445 | 0.149 | 0.018 |  | 0.218 | -0.0745 | 0.0371 |  | 0.211 |  |  | 0.00987 | 0.104
31 | CTGGCGTA | -0.0241 |  | -0.0584 | -0.0477 |  | 0.0789 | -0.177 |  | 0.371 |  |  | 0.00081 | -0.0231 | 0.0306
